Among all 3,200 compounds or so, about 300 (9.4%) showed activity. Only a part is listed here, and it is no random draw.
Tested on: A673/TR/shEF
Test: cell viability (LOESS-normalised, relative to median of negative controls) (log2 ratio); higher = more viable cells (less compound effect), active = hit call of the paper (over 3 MAD below the median)
Conditions: treatment time: 72 h
How it was run: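 For three days, A673/TR/shEF Ewing sarcoma cells in 384-well plates (1,500 per well) were treated with library compounds at two or more concentrations or with DMSO controls, after doxycycline had been added or withheld 24 h beforehand to induce EWS-FLI1 shRNA knockdown. Viability was read by CellTiter-Glo luminescence on an Envision reader. The data were LOESS-corrected per plate, divided by the median of negative controls and log2-transformed.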

[1] = 0.103 µM, library screen: screen3, EWS-FLI1 expression: high (no doxycycline)
[2] = 0.103 µM, library screen: screen3, EWS-FLI1 expression: low (doxycycline-induced shRNA knockdown)
[3] = 0.308 µM, library screen: screen3, EWS-FLI1 expression: high (no doxycycline)
[4] = 0.308 µM, library screen: screen3, EWS-FLI1 expression: low (doxycycline-induced shRNA knockdown)
[5] = 0.926 µM, library screen: screen3, EWS-FLI1 expression: high (no doxycycline)
[6] = 0.926 µM, library screen: screen3, EWS-FLI1 expression: low (doxycycline-induced shRNA knockdown)
[7] = 2.8 µM, library screen: screen3, EWS-FLI1 expression: high (no doxycycline)
[8] = 2.8 µM, library screen: screen3, EWS-FLI1 expression: low (doxycycline-induced shRNA knockdown)
[9] = 8.3 µM, library screen: screen3, EWS-FLI1 expression: high (no doxycycline)
[10] = 8.3 µM, library screen: screen3, EWS-FLI1 expression: low (doxycycline-induced shRNA knockdown)
[11] = 25 µM, library screen: screen3, EWS-FLI1 expression: high (no doxycycline)
[12] = 25 µM, library screen: screen3, EWS-FLI1 expression: low (doxycycline-induced shRNA knockdown)
[13] = 0.25 µM, library screen: screen2, EWS-FLI1 expression: high (no doxycycline)
[14] = 0.25 µM, library screen: screen2, EWS-FLI1 expression: low (doxycycline-induced shRNA knockdown)
[15] = 2.5 µM, library screen: screen2, EWS-FLI1 expression: high (no doxycycline)
[16] = 2.5 µM, library screen: screen2, EWS-FLI1 expression: low (doxycycline-induced shRNA knockdown)
[17] = 0.25 µM, library screen: screen1, EWS-FLI1 expression: high (no doxycycline)
[18] = 0.25 µM, library screen: screen1, EWS-FLI1 expression: low (doxycycline-induced shRNA knockdown)
[19] = 2.5 µM, library screen: screen1, EWS-FLI1 expression: high (no doxycycline)
[20] = 2.5 µM, library screen: screen1, EWS-FLI1 expression: low (doxycycline-induced shRNA knockdown)

Measured: cell viability (log2)

O=C1[C@H](CC[C@H](O)c2ccc(F)cc2)[C@@H](c2ccc(O)cc2)N1c1ccc(F)cc1
inactive: [1] 0.0717 | [2] 0.0377 | [3] 0.134 | [4] 0.0223 | [5] 0.15 | [6] 0.1 | [7] 0.00285 | [8] 0.024 | [9] 0.0525 | [10] 0.101 | [11] 0.0671 | [12] 0.0699

COc1ccccc1N1CCN(CCCCNC(=O)c2ccc3ccccc3c2)CC1
inactive: [13] 0.175 | [14] 0.136 | [15] 0.169 | [16] 0.064

COCCn1c2c([n+](Cc3cnccn3)c1C)C(=O)c1ccccc1C2=O
active: [1] -3.94 | [2] -2.36 | [3] -3.88 | [4] -4.02 | [5] -3.96 | [6] -4.06 | [7] -4.31 | [8] -4.17 | [9] -4.31 | [10] -4.28 | [11] -4.31 | [12] -4.3

COC(=O)C1=C(C)NC(C)=C(C(=O)OCC(C)C)C1c1ccccc1[N+](=O)[O-] (stereo not drawn)
inactive: [1] -0.00484 | [2] 0.0168 | [3] 0.068 | [4] 0.0386 | [5] -0.0209 | [6] 0.0289 | [7] -0.00638 | [8] -0.00566 | [9] -0.0322 | [10] -0.00981 | [11] -0.0662 | [12] 0.00926

C=C[C@@]1(C)CC(=O)[C@@]2(O)[C@](C)(O1)[C@@H](OC(C)=O)[C@@H](O)C1C(C)(C)CC[C@H](O)[C@@]12C (stereo partly drawn)
inactive: [17] 0.111 | [18] 0.0265 | [19] 0.101 | [20] 0.067

O=c1c2ccccc2oc2ccc(O)cc12
inactive: [17] 0.114 | [18] 0.0801 | [19] 0.127 | [20] 0.172

CC1(C)CNc2cc(NC(=O)c3cccnc3NCc3ccncc3)ccc21
inactive: [1] -0.0358 | [2] 0.0106 | [3] 0.0947 | [4] 0.00283 | [5] 0.0481 | [6] -0.0207 | [7] 0.0668 | [8] 0.00605 | [9] 0.0301 | [10] 0.0197 | [11] 0.0462 | [12] -0.0119

COC(=O)C1=C(C)NC(C)=C(C(=O)OCCN(C)Cc2ccccc2)C1c1cccc([N+](=O)[O-])c1 (stereo not drawn)
inactive: [17] 0.089 | [18] -0.0157 | [13] 0.176 | [14] 0.0824 | [19] 0.15 | [20] 0.113 | [15] 0.107 | [16] 0.0778
